# Measurements published in the supplement of paper PMC6089552.
# Among all 3,200 compounds or so, about 300 (9.4%) showed activity. This is a selection; strong and weak results do not stand in their true shares.
# Tested on: A673/TR/shEF
# Assay: cell viability (LOESS-normalised, relative to median of negative controls) (log2 ratio); higher = more viable cells (less compound effect), active = hit call of the paper (over 3 MAD below the median)
# Conditions: treatment time: 72 h
# Procedure, shortened: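 A673/TR/shEF Ewing sarcoma cells (1,500 per well, 384-well plates) were grown with or without doxycycline to induce EWS-FLI1 shRNA knockdown, starting 24 h before compounds. Library compounds at two or more concentrations, with DMSO controls, were added for three days. Cell viability was read by CellTiter-Glo luminescence on an Envision reader, then LOESS-corrected per plate, divided by the median of negative controls and log2-transformed. Hits were wells at least three median absolute deviations from the median of all screened wells.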
# [1] = 0.25 µM, library screen: screen1, EWS-FLI1 expression: high (no doxycycline)
# [2] = 0.25 µM, library screen: screen1, EWS-FLI1 expression: low (doxycycline-induced shRNA knockdown)
# [3] = 2.5 µM, library screen: screen1, EWS-FLI1 expression: high (no doxycycline)
# [4] = 2.5 µM, library screen: screen1, EWS-FLI1 expression: low (doxycycline-induced shRNA knockdown)
# [5] = 0.25 µM, library screen: screen2, EWS-FLI1 expression: high (no doxycycline)
# [6] = 0.25 µM, library screen: screen2, EWS-FLI1 expression: low (doxycycline-induced shRNA knockdown)
# [7] = 2.5 µM, library screen: screen2, EWS-FLI1 expression: high (no doxycycline)
# [8] = 2.5 µM, library screen: screen2, EWS-FLI1 expression: low (doxycycline-induced shRNA knockdown)
# [9] = 0.103 µM, library screen: screen3, EWS-FLI1 expression: high (no doxycycline)
# [10] = 0.103 µM, library screen: screen3, EWS-FLI1 expression: low (doxycycline-induced shRNA knockdown)
# [11] = 0.308 µM, library screen: screen3, EWS-FLI1 expression: high (no doxycycline)
# [12] = 0.308 µM, library screen: screen3, EWS-FLI1 expression: low (doxycycline-induced shRNA knockdown)
# [13] = 0.926 µM, library screen: screen3, EWS-FLI1 expression: high (no doxycycline)
# [14] = 0.926 µM, library screen: screen3, EWS-FLI1 expression: low (doxycycline-induced shRNA knockdown)
# [15] = 2.8 µM, library screen: screen3, EWS-FLI1 expression: high (no doxycycline)
# [16] = 2.8 µM, library screen: screen3, EWS-FLI1 expression: low (doxycycline-induced shRNA knockdown)
# [17] = 8.3 µM, library screen: screen3, EWS-FLI1 expression: high (no doxycycline)
# [18] = 8.3 µM, library screen: screen3, EWS-FLI1 expression: low (doxycycline-induced shRNA knockdown)
# [19] = 25 µM, library screen: screen3, EWS-FLI1 expression: high (no doxycycline)
# [20] = 25 µM, library screen: screen3, EWS-FLI1 expression: low (doxycycline-induced shRNA knockdown)
structure (smiles),measurement,setting,value
CC(=O)c1c(C(C)=O)c(C)n(-c2cc(C)cc(C)c2)c1C,cell viability (log2),[1],inactive: 0.0993
same,cell viability (log2),[2],inactive: 0.13
same,cell viability (log2),[3],inactive: 0.0722
same,cell viability (log2),[4],inactive: 0.0963
O=C(O)c1cc2c(Cl)cc(Cl)cc2[nH]1,cell viability (log2),[1],inactive: 0.105
same,cell viability (log2),[2],inactive: 0.0244
same,cell viability (log2),[3],inactive: 0.0763
same,cell viability (log2),[4],inactive: 0.0336
CCOC(=O)C1=C(C)NC2=C(C(=O)CC(C)(C)C2)C1c1coc2ccccc2c1=O (stereo not given),cell viability (log2),[1],inactive: 0.113
same,cell viability (log2),[2],inactive: 0.123
same,cell viability (log2),[3],inactive: 0.0647
same,cell viability (log2),[4],inactive: 0.0912
CC(=O)N1CCC[C@H]1C(=O)O,cell viability (log2),[1],inactive: 0.138
same,cell viability (log2),[2],inactive: 0.0212
same,cell viability (log2),[3],inactive: 0.184
same,cell viability (log2),[4],inactive: 0.0486
CC(C)CCC[C@@H](C)[C@H]1CC[C@H]2C3=CC[C@H]4C[C@@H](O)CC[C@]4(C)[C@H]3CC[C@]12C,cell viability (log2),[1],inactive: -0.0717
same,cell viability (log2),[2],inactive: -0.021
same,cell viability (log2),[3],inactive: 0.0758
same,cell viability (log2),[4],inactive: 0.0695
COc1cc(-c2coc3cc(O[C@@H]4O[C@H](CO)[C@@H](O)[C@H](O)[C@H]4O)c(OC)c(O)c3c2=O)cc(O)c1OC,cell viability (log2),[1],inactive: 0.135
same,cell viability (log2),[2],inactive: 0.0699
same,cell viability (log2),[3],inactive: 0.116
same,cell viability (log2),[4],inactive: 0.111
O=c1c(O)c(-c2ccccc2)oc2cc(O)ccc12,cell viability (log2),[1],inactive: 0.0271
same,cell viability (log2),[2],inactive: 0.0324
same,cell viability (log2),[3],inactive: 0.0788
same,cell viability (log2),[4],inactive: 0.174
C=C1C(=O)OC2CC1C(OC(C)=O)C/C(C)=C/CC/C(C)=C\CCC2(C)O (stereo not given),cell viability (log2),[1],inactive: 0.18
same,cell viability (log2),[2],inactive: 0.0249
same,cell viability (log2),[3],inactive: 0.0625
same,cell viability (log2),[4],inactive: -0.139
OC[C@H]1O[C@@H](Oc2cc(O)cc(/C=C/c3ccc(O)cc3)c2)[C@H](O)[C@@H](O)[C@@H]1O,cell viability (log2),[1],inactive: 0.0243
same,cell viability (log2),[2],inactive: 0.0804
same,cell viability (log2),[3],inactive: 0.16
same,cell viability (log2),[4],inactive: 0.112
COc1ccc(C2CNC(=O)C2)cc1OC1CCCC1 (stereo not given),cell viability (log2),[5],inactive: 0.146
same,cell viability (log2),[6],inactive: 0.0589
same,cell viability (log2),[7],inactive: 0.166
same,cell viability (log2),[8],inactive: 0.136
O=c1c(O)c(-c2ccc(O)cc2O)oc2cc(O)cc(O)c12,cell viability (log2),[1],inactive: 0.0874
same,cell viability (log2),[2],inactive: 0.0533
same,cell viability (log2),[5],inactive: 0.021
same,cell viability (log2),[6],inactive: 0.0486
same,cell viability (log2),[3],inactive: 0.125
same,cell viability (log2),[4],inactive: 0.109
same,cell viability (log2),[7],inactive: 0.0594
same,cell viability (log2),[8],inactive: 0.0376
CC(/C=C/c1cccc(Oc2ccc(F)cc2)c1)N(O)C(N)=O (stereo not given),cell viability (log2),[5],inactive: 0.185
same,cell viability (log2),[6],inactive: 0.0476
same,cell viability (log2),[7],inactive: 0.131
same,cell viability (log2),[8],inactive: -0.0183
NC(=O)c1ccc([N+](=O)[O-])cc1Cl,cell viability (log2),"0.025 µM, library screen: screen2, EWS-FLI1 expression: high (no doxycycline)",inactive: 0.019
same,cell viability (log2),"0.025 µM, library screen: screen2, EWS-FLI1 expression: low (doxycycline-induced shRNA knockdown)",inactive: -0.00128
same,cell viability (log2),[5],inactive: 0.119
same,cell viability (log2),[6],inactive: -0.0311
same,cell viability (log2),[7],inactive: 0.142
same,cell viability (log2),[8],inactive: 0.0636
same,cell viability (log2),"25 µM, library screen: screen2, EWS-FLI1 expression: high (no doxycycline)",inactive: 0.166
same,cell viability (log2),"25 µM, library screen: screen2, EWS-FLI1 expression: low (doxycycline-induced shRNA knockdown)",inactive: 0.067
O=C1OCCN1/N=C/c1ccc([N+](=O)[O-])o1,cell viability (log2),[1],inactive: 0.0979
same,cell viability (log2),[2],inactive: 0.0406
same,cell viability (log2),[3],inactive: 0.174
same,cell viability (log2),[4],inactive: 0.0262
O=C1NC(=O)/C(=C/c2ccc3nccnc3c2)S1,cell viability (log2),[9],inactive: -0.0183
same,cell viability (log2),[10],inactive: 0.0389
same,cell viability (log2),[11],inactive: 0.0582
same,cell viability (log2),[12],inactive: 0.0283
same,cell viability (log2),[13],inactive: 0.0603
same,cell viability (log2),[14],inactive: -0.011
same,cell viability (log2),[15],inactive: -0.0177
same,cell viability (log2),[16],inactive: -0.0071
same,cell viability (log2),[17],inactive: -0.0545
same,cell viability (log2),[18],inactive: -0.0391
same,cell viability (log2),[19],inactive: 0.0105
same,cell viability (log2),[20],inactive: 0.0289
COc1ccc(C(=O)c2ccc(O)cc2O)c(O)c1,cell viability (log2),[1],inactive: 0.0224
same,cell viability (log2),[2],inactive: 0.0701
same,cell viability (log2),[3],inactive: 0.116
same,cell viability (log2),[4],inactive: 0.108
c1ccc([C@H]2CN3CCSC3=N2)cc1,cell viability (log2),"0.025 µM, library screen: screen1, EWS-FLI1 expression: high (no doxycycline)",inactive: 0.0743
same,cell viability (log2),"0.025 µM, library screen: screen1, EWS-FLI1 expression: low (doxycycline-induced shRNA knockdown)",inactive: 0.0216
same,cell viability (log2),[9],inactive: 0.103
same,cell viability (log2),[10],inactive: 0.000516
same,cell viability (log2),[1],inactive: 0.0991
same,cell viability (log2),[2],inactive: 0.0737
same,cell viability (log2),[5],inactive: 0.069
same,cell viability (log2),[6],inactive: 0.0838
same,cell viability (log2),[11],inactive: 0.127
same,cell viability (log2),[12],inactive: 0.0938
same,cell viability (log2),[13],inactive: 0.0997
same,cell viability (log2),[14],inactive: 0.0447
same,cell viability (log2),[3],active: -0.0948
same,cell viability (log2),[4],inactive: 0.0839
same,cell viability (log2),[7],inactive: 0.126
same,cell viability (log2),[8],inactive: 0.0627
same,cell viability (log2),[15],inactive: 0.136
same,cell viability (log2),[16],inactive: 0.0913
same,cell viability (log2),[17],inactive: 0.12
same,cell viability (log2),[18],inactive: 0.085
same,cell viability (log2),"25 µM, library screen: screen1, EWS-FLI1 expression: high (no doxycycline)",active: -0.295
same,cell viability (log2),"25 µM, library screen: screen1, EWS-FLI1 expression: low (doxycycline-induced shRNA knockdown)",inactive: -0.0899
same,cell viability (log2),[19],inactive: 0.0427
same,cell viability (log2),[20],inactive: 0.11
C=C(c1ccccc1)c1cc(O)c(OC)cc1O,cell viability (log2),[1],inactive: -0.0139
same,cell viability (log2),[2],inactive: -0.00424
same,cell viability (log2),[3],inactive: 0.0356
same,cell viability (log2),[4],inactive: 0.0603
CN1C[C@H]2c3ccccc3Oc3ccc(Cl)cc3[C@@H]2C1,cell viability (log2),[9],inactive: -0.0113
same,cell viability (log2),[10],inactive: 0.0411
same,cell viability (log2),[11],inactive: 0.0363
same,cell viability (log2),[12],inactive: 0.0417
same,cell viability (log2),[13],inactive: 0.0488
same,cell viability (log2),[14],inactive: 0.0231
same,cell viability (log2),[15],inactive: 0.0964
same,cell viability (log2),[16],inactive: 0.0456
same,cell viability (log2),[17],inactive: 0.0132
same,cell viability (log2),[18],inactive: 0.0603
same,cell viability (log2),[19],inactive: 0.0424
same,cell viability (log2),[20],inactive: 0.06
